# Laboratory results taken from PubChem BioAssay AID1347430 (National Center for Advancing Translational Sciences (NCATS), 2020).
# About 130 (0.14%) of roughly 91,000 compounds were called active. Inconclusive means that the source gave no clear call. Such entries were picked first, then a sample of the others. Calls follow the shape of the dose curve; as a rule, active = well fitted inhibition curve with a large enough effect; inconclusive = small, poorly fitted or top-dose-only effect; inactive = flat fitted curve, though single readings scatter. A potency beside an inconclusive call is a rough fit, not a confirmed value.
# Tested on: Uracil-DNA glycosylase
# Assay: Primary qHTS assay for inhibitors of Activation Induced Cytidine Deaminase (AID): UDG Counterscreen signal; also: nearly all actives have a fitted effect of over 65% in size
# Conditions: FRET deamination/UDG coupled assay, UDG read, 4 h; series mostly up to 115 µM
# Potency is read from the fitted curve at half-maximal effect; tags tell the direction and shape of the fitted curve.
row,SMILES,Potency
1,Cc1ccc(Nc2nnc(SCC(=O)c3ccc(Cl)s3)s2)c(C)c1,inactive
2,CCN(c1ccccc1)c1nnc(NC(=O)Nc2ccc(Br)c(C)c2)s1,"inconclusive: 79.4 µM [inhibitor, partial curve, poor fit]"
3,Nc1c(C(=O)NCc2ccc(Cl)cc2)sc2nc(-c3ccc(F)cc3)ccc12,"inconclusive: 89.1 µM [inhibitor, single point]"
4,COc1ccc(OCCn2nnc3sc4c(c3c2=O)CCCC4)cc1,"inconclusive: 89.1 µM [inhibitor, single point]"
5,CCOC(=O)c1c(C)[nH]c(C)c1S(=O)(=O)NCC(=O)NCc1ccccc1C,"inconclusive: 100 µM [inhibitor, partial curve, poor fit]"
6,Cc1ccc(Cl)cc1Nc1nn2c(=O)c3ccc(C(=O)NC(C)c4ccccc4)cc3nc2s1 (stereo unspecified),"inconclusive: 100 µM [inhibitor, single point]"
7,CCCCNc1oc(/C=C/c2cccc(OC)c2)nc1C#N,inactive
8,Cc1ccc(S(=O)(=O)C(CNC(=O)C(=O)NCc2ccc(Cl)cc2)c2ccco2)cc1 (stereo unspecified),"inconclusive: 89.1 µM [inhibitor, single point]"
9,CN(C(=O)CSc1nc2ccccc2n1Cc1ccccc1C#N)c1ccccc1,"inconclusive: 89.1 µM [inhibitor, single point]"
10,Cc1ccc(NC(c2nnc(-c3ccccc3)o2)c2ccccc2F)c(Cl)c1 (stereo unspecified),"inconclusive: 100 µM [inhibitor, single point]"
11,Oc1ccc(N=Cc2ccccc2OCc2ccccc2)cc1,"inconclusive: 10 µM [inhibitor, full curve, poor fit]"
12,Cc1ccc(CCNC(=O)CCn2nc(-c3ccc(C)cc3)ccc2=O)cc1,"inconclusive: 100 µM [inhibitor, single point]"
13,O=C(Cn1c(=O)oc2cc(S(=O)(=O)N3CCCCC3)ccc21)NCc1ccc(F)cc1,"inconclusive: 89.1 µM [inhibitor, partial curve, poor fit]"
14,O=C(CSc1nc2ccccc2s1)Nc1c(F)cccc1F,inactive
15,CCc1nonc1NC(=O)c1oc2ccc(Br)cc2c1C,"inconclusive: 89.1 µM [inhibitor, single point]"
16,CC(=O)CSc1nnc2cc(C)c3cc(C)cc(C)c3n12,"inconclusive: 79.4 µM [inhibitor, partial curve, poor fit]"
17,Cc1oc2ncnc(N3CCCCC3)c2c1C(=O)N1CCN(c2cccc(Cl)c2)CC1,"inconclusive: 89.1 µM [inhibitor, single point]"
18,COc1ccc(C(=O)COC(=O)C(Cc2c[nH]c3ccccc23)NC(=O)c2ccc(C(C)(C)C)cc2)cc1 (stereo unspecified),"inconclusive: 100 µM [inhibitor, single point]"
19,COc1ccc(C(=O)Nc2ccc(-n3nncc3-c3ccccc3)cc2)cc1OC,"inconclusive: 89.1 µM [inhibitor, partial curve, poor fit]"
20,Cc1nc(C(=O)O)ccc1C#N,inactive
21,CCN(C(=S)Nc1cc(S(=O)(=O)N(C)C)ccc1C)c1cccc2ccccc12,"inconclusive: 5.62 µM [inhibitor, full curve]"
22,O=C(NCCCc1nc2ccccc2n1Cc1c(F)cccc1Cl)C1CCCCC1,"inconclusive: 89.1 µM [inhibitor, partial curve, poor fit]"

row,SMILES,Potency
1,CCc1ccc(NC(=O)CN(c2cccc(C)c2C)S(C)(=O)=O)cc1,"inconclusive: 89.1 µM [inhibitor, single point]"
2,Cc1ccc(C)c(C(=O)c2c(N)c(-c3nc(-c4ccc5c(c4)OCO5)cs3)c3ccccn23)c1,"inconclusive: 79.4 µM [inhibitor, partial curve, poor fit]"
3,CC1CCN(CCCNCc2cccnc2)CC1,inactive
4,CCCCCSc1nc2sc3c(c2c(=O)n1-c1ccc(OC)cc1)CCN(C(C)=O)C3,"inconclusive: 112 µM [inhibitor, partial curve, poor fit]"
5,Cc1cccc(CNC(C(=O)O)C(C)C)c1 (stereo unspecified),inactive
6,Cc1ccc(-n2c(=O)c3cccnc3n2CC(=O)Nc2cc(Cl)ccc2C)cc1,"inconclusive: 100 µM [inhibitor, single point]"
7,COc1ccc2c(c1)c(C(C(=O)O)N1CCN(c3ccc(F)cc3)CC1)cn2CCC(=O)O (stereo unspecified),inactive
8,O=C(Nc1ccc(-c2nc3ccccc3o2)cc1)c1cccc(F)c1,inactive
9,O=C(CC1C(=O)N(c2ccc(F)cc2)C(=O)N1Cc1ccc2c(c1)OCO2)Nc1ccc(Cl)cc1 (stereo unspecified),"inconclusive: 89.1 µM [inhibitor, single point]"
10,Cc1ccc(NC(=O)c2ccc(Cl)cc2N2CCCC2=O)cc1,inactive
11,CCC(=O)Oc1c(Sc2ccc(Cl)cc2)c(C)nn1-c1ccccc1,"inconclusive: 2.82 µM [inhibitor, full curve, poor fit]"
12,CC(=O)Nc1ccc(-c2csc(Nc3cc(C)ccc3C)n2)cc1,"inconclusive: 89.1 µM [inhibitor, single point]"
13,O=C(CCc1ncc(-c2ccccc2Cl)o1)N1CCN(S(=O)(=O)c2ccccc2Cl)CC1,inactive
14,Cc1ccc2cccc(NC(=O)c3ccc(OC(C)C)cc3)c2n1,"inconclusive: 39.8 µM [inhibitor, single point]"
15,CCc1ccccc1NC(=O)CN(c1ccccc1)S(=O)(=O)c1ccsc1C(=O)OC,"inconclusive: 89.1 µM [inhibitor, single point]"
16,CCOc1ccc(-c2nn(-c3ccccc3)cc2C2NC(=O)NC(C)=C2C(=O)OC(C)C)cc1 (stereo unspecified),"inconclusive: 44.7 µM [inhibitor, partial curve, poor fit]"
17,O=C(CSc1nc2ccccc2nc1N1CCCC1)NCc1ccc(F)cc1,inactive
18,CCOc1ccc(NC(=O)c2ncoc2-c2ccco2)cc1,"inconclusive: 79.4 µM [inhibitor, partial curve, poor fit]"
19,COc1ccccc1OC(C)C(=O)Nc1cccc(-c2nc3ccccc3o2)c1 (stereo unspecified),"inconclusive: 89.1 µM [inhibitor, partial curve, poor fit]"
20,N#CC1(NC(=O)COc2cccc(C(F)(F)F)c2)CCCC1,inactive
21,CC(C)(C)c1ccc(OCc2nnc(-c3ccccc3)o2)cc1,"inconclusive: 89.1 µM [inhibitor, partial curve, poor fit]"
22,CCN(Cc1ccccc1)S(=O)(=O)c1ccc(-c2coc(C)n2)cc1,"inconclusive: 35.5 µM [inhibitor, partial curve, poor fit]"

row,SMILES,Potency
1,Cc1cc(C(=O)Nc2ccc(-n3c(C)nc4ccccc4c3=O)cc2)ccc1[N+](=O)[O-],"inconclusive: 100 µM [inhibitor, single point]"
2,Cc1ccc(CCNC(c2ccc(F)cc2)c2nnc(-c3ccccc3Cl)o2)cc1 (stereo unspecified),"inconclusive: 89.1 µM [inhibitor, single point]"
3,CCn1c(C(=O)N2CCC(C(=O)N3CCN(c4cc(C)ccc4C)CC3)CC2)cc2sccc21,"inconclusive: 79.4 µM [inhibitor, single point]"
4,CC(C)CC(=O)Nc1nc2c(s1)CC(C(C)(C)C)CC2 (stereo unspecified),"inconclusive: 89.1 µM [inhibitor, single point]"
5,COc1ccc(-c2cc3ccc(OC)cc3oc2=O)c(OC)c1,"inconclusive: 89.1 µM [inhibitor, single point]"
6,CCN(CC)C(=O)Cn1nc(-c2ccc(C)cc2)c2ccccc2c1=O,inactive
7,Cc1cccc(-n2c(Cc3ccccc3)nnc2SCc2nc(-c3cccs3)no2)c1,"inconclusive: 79.4 µM [inhibitor, partial curve, poor fit]"
8,CN1CCN(c2oc(-c3ccc(S(=O)(=O)N4CCCCC4)cc3)nc2C#N)CC1,"inconclusive: 89.1 µM [inhibitor, single point]"
9,CCOC(=O)C(NC(=O)Cc1cc(OC)c(OC)c(OC)c1)C(=O)OCC,inactive
10,Cc1nn(CC(=O)Nc2ccc3c(c2)nc(CCN2CCOCC2)n3C)c(=O)c2ccccc12,inactive
11,Cc1cc2nc(CSc3ccc(NC(=O)C(C)(C)C)cc3)c(=O)[nH]c2cc1C,"inconclusive: 89.1 µM [inhibitor, partial curve, poor fit]"
12,CCC(C)Sc1oc(-c2ccco2)nc1S(=O)(=O)c1ccc(C)cc1 (stereo unspecified),"inconclusive: 79.4 µM [inhibitor, partial curve, poor fit]"
13,Cc1cc2c(cc1C)NC(CC(=O)Nc1cccc(Cl)c1)C(=O)N2 (stereo unspecified),"inconclusive: 89.1 µM [inhibitor, single point]"
14,CNc1ccc(-c2nc(-c3ccco3)no2)cc1[N+](=O)[O-],"inconclusive: 89.1 µM [inhibitor, single point]"
15,Clc1ccccc1-c1nc(-c2ccc(Br)cc2)no1,inactive
16,Cc1nc(SCC(=O)Nc2cccc3ccccc23)oc1C,inactive
17,O=C1Nc2cc(C(=O)N3CCN(c4ccccc4)CC3)ccc2N2CCCCC12 (stereo unspecified),inactive
18,COc1ccc(N(Cc2cccs2)C(=O)c2ccc(C(C)(C)C)cc2)cc1,"inconclusive: 89.1 µM [inhibitor, single point]"
19,CCCc1nc2ccccc2c(C(=O)OCC(=O)NC(=O)NC)c1CC,inactive
20,COc1cc(Nc2ncc3c(n2)CCN(Cc2cc(Br)cs2)C3)cc(OC)c1,"inconclusive: 44.7 µM [inhibitor, partial curve, poor fit]"
21,Cn1c(SCC(=O)NCC2CN(Cc3ccccc3)CCO2)nnc1-c1ccc(C(C)(C)C)cc1 (stereo unspecified),inactive
22,Cc1[nH]c2ccccc2c1C1N2CC3(C)CN1CC(C)(C2)C3=O (stereo unspecified),"inconclusive: 89.1 µM [inhibitor, single point]"
